Laboratory results from publication PMC12136788.
This is one part of the list.

B1: chr1:163117127:163117128:-_ENSG00000143248_ENST00000313961|hu_mus|hu_hu_hu_mus_False|98_98 (ssRNA)
RNA: GGGAGUUCUACAGUCCGACGAUCUGCUACAAAGGAUGGAGGAAAUAUCACAGGGCAACUUUUGGAAGCCUGACCAGAUGACUACUUGAUUAGCUCCUUAUAAAAUUCAGAGCGCACAAAGCGGGGCAGAGAAUCCUUCUCCAUCAACAGAGGAUUGAGCAUCA
B2: chr8:104061119:104061120:+_ENSG00000155097_ENST00000518738|hu_mus|FALSE|FALSE (ssRNA)
RNA: GGGAGUUCUACAGUCCGACGAUCCAAGUUCUCCUGAACUUUAUCUUUGCUGUCCUCCAGCACAUCAGCCAUGUACUGAGCCACUUUCUUGACCACACCUUCUACAAAUGCAUCCAGUUUAGCCAGUUCAUCCGACAAGCCAACCAACAGAGGAUUGAGCAUCA
B3: chr4:25749455:25749456:-_ENSG00000091490_ENST00000264868|hu_hu|hu_hu_hu_mus_False|18_48 (ssRNA)
RNA: GGGAGUUCUACAGUCCGACGAUCGCACUAUGACCUCUAGAAAAAUCCACAGGGGGAAAAAAUGUAAACCAAUGUACAAUGUUAUCGCCCUCCCUGCGUGUGGAGUGUUUGUCUCAAUAUUUCAAGGAGCUGCUGGAUUUGGGACAACAGAGGAUUGAGCAUCA
B4: chr16:18283852:18283853:-_ENSMUSG00000022718_ENSMUST00000009321|mus_hu|FALSE|FALSE (ssRNA)
RNA: GGGAGUUCUACAGUCCGACGAUCGGGGAAAUUCAAGGCCUCUUCAUCCACUCUGUCUCUCUGAACGAUUGCUUUAGCCGUGAACCCGCCUGCUCCUUCUUCAUCUAGCUCCAAAUUGUCAGUAAAAUCUUCUAACUCAUCGAGCAACAGAGGAUUGAGCAUCA
B5: chr1:39494447:39494448:+_ENSG00000168653_ENST00000372967|hu_mus|hu_hu_hu_mus_False|48_58 (ssRNA)
RNA: GGGAGUUCUACAGUCCGACGAUCGCACCGAGCGGCGUUCUUAUAGGGCUGUUCUGCGCUUAGGAACAUAAAGUGCCGAUCUAUGUUAAGGCCGAACUUUUUCUGUAUGUCAAGGAAAGGCAUGGCUCUGCAGUGCCCUUGUCACAACAGAGGAUUGAGCAUCA
B6: chr14:76904430:76904431:+_ENSMUSG00000022010_ENSMUST00000022587|mus_mus|mus_mus_mus_hu_True|58_78 (ssRNA)
RNA: GGGAGUUCUACAGUCCGACGAUCUGCAGCCAAAAACACCCUCGUGGAAAAAAAGAGCAAGCUCCAGCAGCCUUGUACAAACUAGAUAAAAUCUUCUGGCUUUCCGCAGCCCAGGGAGAAACAGAAAACGGCAGCCCUAAUUUACAACAGAGGAUUGAGCAUCA
B7: chr7:131071926:131071927:+_ENSG00000128585_ENST00000352689|hu_hu|motif|central (ssRNA)
RNA: GGGAGUUCUACAGUCCGACGAUCUUUCUUCAAAUUGCAAACAUGAGUUUUCUCAUAUUUUCCAAAUGUGAUAUUCUGAACGGUAGCAGGCCUUUCGAGCUUUAGAAUCAAGUACUGGGGAGGAUAGUUGCUCUCUGAAGACCACAACAGAGGAUUGAGCAUCA
B8: chr13:56191178:56191179:-_ENSMUSG00000015937_ENSMUST00000016081|mus_mus|motif|central (ssRNA)
RNA: GGGAGUUCUACAGUCCGACGAUCUUUAAGGUCAAUGUCAGCAUUGGUAGGAUUGAUUAUGGCCUCCACCUCAAAGCCGGCGGAAUUACUGAUUUCACUGUGAAUAAGGUUCAGCUUCUGGCCGAGGAAGAGGCUCUUGGUGGACAACAGAGGAUUGAGCAUCA
B9: chr6:38652254:38652255:-_ENSG00000124767_ENST00000373365|hu_hu|hu_hu_hu_mus_False|98_108 (ssRNA)
RNA: GGGAGUUCUACAGUCCGACGAUCCGAAAACUUCAUAAUGGGAAAAUCAAGCUUCUGCAGGAGGGUCAGUCCAAGAACCCUCGUAUAAAAAUCCAGGGACUUCUUAGGAUCCUUAAUUCUUAGCAUCGUUUGCUGCAGUAGAAACAACAGAGGAUUGAGCAUCA
B10: chr7:135333399:135333400:+_ENSG00000155561_ENST00000285968|hu_hu|motif|central (ssRNA)
RNA: GGGAGUUCUACAGUCCGACGAUCUGUCCAUAUACAAAGAAAGAAAUAGCAAAAUAUUUUUGGUCAUAAUUUAGAAAGAAACGGAUCGGUAAAAUGGAGACAAUUCUCCCCAAUUCAUCUCUCUCAUAGAAGAGCAUAAGCACGCAACAGAGGAUUGAGCAUCA
B11: chr2:223789231:223789232:+_ENSG00000123983_ENST00000392066|hu_hu|motif|central (ssRNA)
RNA: GGGAGUUCUACAGUCCGACGAUCUUUUGAAAUCUGUUCCAUUUUGUAAUUAUAGGCCAGAAUAAACAGAUUACGUUGAAAACGGCUCAUUUCACUGACUUUAUUCAUGACAUUUUUGUAGAUCCGAUCCAUGAUUUCCGGAACCAACAGAGGAUUGAGCAUCA
B12: chr12:110929880:110929881:-_ENSG00000111237_ENST00000549970|hu_mus|FALSE|FALSE (ssRNA)
RNA: GGGAGUUCUACAGUCCGACGAUCCUCAAUUCGUUCUACUUUGACGUCAUCUCCAAUUAGUUGAUAGACGUAAGUGACCACAGUAGAAGCCUGGAUGUCCAUCAGCACAAACGAUGGAAUAAUGUUUGUUUCCAAGGCAUUAUACAACAGAGGAUUGAGCAUCA
B13: chr14:53113150:53113151:-_ENSG00000197930_ENST00000395686|hu_hu|motif|central (ssRNA)
RNA: GGGAGUUCUACAGUCCGACGAUCUCCCCACAGACGACAUUUAAAACAACCAACACAAUCCAUAAUUCUUGAAAUAUUUCGGAAAUGCAGUCGAAAGUCCUCCUUUAGUUUGUGUGCUUCUUUUUUAUCCCCAGCAAAAAAUGACAACAGAGGAUUGAGCAUCA
B14: chr2:10930004:10930005:-_ENSG00000143870_ENST00000272227|hu_mus|FALSE|FALSE (ssRNA)
RNA: GGGAGUUCUACAGUCCGACGAUCAUCAUAGUCCACAGGAGACUCGCCUUUCUGAAAUAUCUUGAUUGUAGGGAAUCCUUUAAUCCCGUAUCGGCUGGCCAGAACCUGAUUCAUGGUGGCAUCCACAGCUGCCAGUUUCACUUUCAACAGAGGAUUGAGCAUCA

Biological target: T1, UNK ZnF1-3 (human, UniProt Q9C0B0 31-174)
T1 sequence: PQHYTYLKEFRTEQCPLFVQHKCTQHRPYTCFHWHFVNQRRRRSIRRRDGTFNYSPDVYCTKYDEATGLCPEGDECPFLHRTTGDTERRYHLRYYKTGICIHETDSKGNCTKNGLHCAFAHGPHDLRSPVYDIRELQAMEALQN
Experiment: nsRBNS (natural sequence RNA bind-n-seq); RBNS binding buffer (assumed for nsRBNS): 25 mM Tris pH 7.5, 150 mM KCl, 3 mM MgCl2, 0.01% Triton X-100, 500 ug/ml BSA, 20 U/ml SUPERase-In, 4 C; UNK is unkempt and MSI1 is Musashi-1; names of the RNAs are library labels; protein concentration not given here; high values mean tight binding

Binder | binding signal
B1 | 1.61 enrichment R
B2 | 0.818 enrichment R
B3 | 1.31 enrichment R
B4 | 1.18 enrichment R
B5 | 0.62 enrichment R
B6 | 2.41 enrichment R
B7 | 0.942 enrichment R
B8 | 0.878 enrichment R
B9 | 1.06 enrichment R
B10 | 1.28 enrichment R
B11 | 0.593 enrichment R
B12 | 1.02 enrichment R
B13 | 1.58 enrichment R
B14 | 1 enrichment R
